Test results from PubChem BioAssay AID1963576 (National Center for Advancing Translational Sciences (NCATS), 2024).
About 60 (0.1%) of roughly 46,000 compounds were called active. Inconclusive results (about 3%) are left out. The call rests on the fitted dose curve; in most records, active means well fitted inhibition curve with a large enough effect; inconclusive means small, poorly fitted or top-dose-only effect; inactive means no such curve, though single readings can be large or run the other way. Some of the results follow.

Experiment: Primary qHTS assay for Inhibitors of ovarian cancer metastasis using an organotypic tumor microenvironment (TME) model. Further: nearly all actives have a fitted effect of over 65% in size.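 On activity change, negative = inhibition: plate controls were DMSO wells for no effect and tomatine positive control wells for full effect.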
Conditions: SKOV3ip1-GFP adhesion/invasion on 3D omental model, fluorescence; series mostly up to 45.8 µM; activity change, negative = inhibition: at the top concentration
Outline: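 qHTS, 4-pt dose (0.36-46 umol/L); SKOV3ip1-GFP, 1,200 cells/well, no FBS; primary omental fibroblast/mesothelial co-culture 48 h pre-grown; 2 h RT + 16 h 37 C; PBS wash, 4% PFA; GFP count 488/509 nm.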

Activity change, negative = inhibition, inactive:
CCN(C(=O)c1cnc(N2CCOCC2)c2ccccc12)c1cc(C)ccc1C -9%, Cc1cc(NC(=O)C(C)(C)Oc2ccc(Cl)cc2)cc(-c2nc3ncccc3o2)c1O 5.05%, COc1cccc(CNc2nc3c(-c4cccc(C)c4)nnn3c3ccccc23)c1 -3.03%, O=C(OCc1cc(=O)n2nc(-c3cccs3)sc2n1)c1ccccc1Br -7.96%, CC(=O)Nc1ccc(NC(=O)CCC(=O)c2ccc(C)cc2)cc1 3.18%, Nc1nc(=O)n([C@H]2CSC(CO)O2)cc1F (stereo partly specified) 3.72%, CC(C)Nc1ccc(-c2nc(-c3ccccn3)no2)cc1[N+](=O)[O-] -1.22%, Cc1cc(Cl)ccc1OCC(=O)N(Cc1ccc(N(C)C)cc1)CC1CCCO1 (stereo unspecified) -7.09%, CCc1ccc(NC(=O)c2sc3nc(C)c(Cl)c(C)c3c2NC(=O)c2ccccc2)cc1 -6.84%, Cc1nn(-c2ccccc2)c2nc(C3CC3)cc(C(=O)NCc3ccccc3Cl)c12 7.07%, O=C(C1CC1)N1CCN(c2nc3c(F)cc(F)cc3s2)CC1 -9.02%, CCN(CC)c1nc(-c2ccccc2Cl)c2cc(Br)ccc2n1 -4.17%, CNc1oc(-c2ccc(COc3ccc(C)cc3)o2)nc1C#N 7.35%, CCOc1ccccc1NC(=O)c1cnc(N2CCOCC2)c2ccccc12 -7.92%, COC(=O)c1cc(NC(=O)c2ccc3c(c2)N(Cc2cccc(Cl)c2)C(=O)c2ccccc2S3=O)cc(C(=O)OC)c1 (stereo unspecified) -8.41%, CCCCCN1C(C(=O)c2ccccc2)=C(NC(C)=O)c2ccccc2S1(=O)=O -11%, Cc1cc(C)cc(C(=O)Nc2nnc3n2CCS3)c1 -14.5%, CCOC(=O)c1ccc(NC(=O)CSc2nccn2Cc2ccc(OC)cc2)cc1 2.76%, CCCn1c2ccccc2c2cnn(CC(=O)Nc3ccc(C)cc3Br)c(=O)c21 -1.74%, CCOc1ccccc1C(=O)Nc1cc(-c2ccc(C)cc2)no1 0.713%, Cc1ccc(C(=O)Nc2ccc(C(=O)OCc3cc(=O)n4c5c(sc4n3)CCCC5)cc2)cc1 3.12%, COc1ccccc1Nc1ncc(C(=O)Nc2ccc(OC)c(OC)c2)c2ccccc12 18.5%, CCc1cccc(C)c1NC(=O)C1=C(C)C(=O)OC12CCC(C)CC2 (stereo unspecified) 8.36%, CCCOc1ccc(C2=NC(c3ccc(F)cc3)=Nc3ccc(OC)cc3N2)cc1 1.02%, COC(=O)c1ccc(Cn2nnc3c(=O)[nH]c(C4CCCN(S(=O)(=O)c5ccccc5)C4)nc32)cc1 (stereo unspecified) 3.2%, Cn1cc(C(=O)NCCc2ccc(Cl)cc2)c(=O)c2cc(S(=O)(=O)N3CCCCC3)ccc21 -1.04%, COc1ccccc1CNC(=O)c1ccc2c(c1)CCN2S(=O)(=O)c1ccc(Cl)cc1 2.69%, COc1ccc2nc(N(Cc3cccnc3)C(=O)COc3ccccc3)sc2c1 3.27%, COc1ccc(NC(=O)NCC2CCN(Cc3ccccc3F)CC2)c(OC)c1 -7.35%, Cc1ccc(Nc2ncnc3c2nc2n3CCCC2)c(Br)c1 -5.92%, Nc1nccc(-c2ccc3noc(-c4ccc(Cl)cc4)c3c2)n1 -12.8%, COc1ccc(N2CCN(C(=O)Cn3nc(Cc4cccnc4)c4ccccc4c3=O)CC2)cc1 -3.81%, CC(=O)Nc1ccc(NS(=O)(=O)c2ccc3[nH]c4c(c3c2)CCCCC4)cc1 -10%, CCOc1ccc(C(=O)NCC(c2ccc3c(c2)OCO3)N2CCN(c3ccc(F)cc3)CC2)cc1 (stereo unspecified) 0.831%, COc1ccc(CCN2C(=O)N(c3ccc(F)cc3)C(=O)C2CC(=O)Nc2ccc(OC)cc2)cc1 (stereo unspecified) 3.45%, CCc1ccccc1NC(=O)N1CCC2(CC1)Oc1ccccc1C(=O)N2Cc1ccccc1F 8.32%, CCCC(CCC)C(=O)Nc1cccc(-c2nc3cccnc3s2)c1 -18.7%, CC(=O)N1CCc2cc(S(=O)(=O)NC(CC(C)C)C(=O)NCCc3ccccc3)ccc21 (stereo unspecified) 6.9%, COc1ccc(Cl)cc1NC(=O)CCN1C(=O)c2ccccc2Sc2ncccc21 -7.46%, CCOC(=O)c1ccccc1NC(=O)CSc1cc(C)[nH]c(=O)n1 -4.62%, COc1cc(OC)c(NC(=O)N2CCN3CCCCC3C2)cc1Cl (stereo unspecified) -2.98%, CC(C)(C)c1cc(C(C)(C)C)c2oc(=O)c(-c3nc4ccc(C(=O)O)cc4[nH]3)cc2c1 -8.69%, Cc1ccc(CN2CCN(C3CCN(C(=O)c4ccc(C)cc4)CC3)C(=O)C2=O)cc1 3.62%, COc1ccc(OC)c(Nc2ncc3c(n2)CCN(Cc2cc(OC)c(OC)c(OC)c2)C3)c1 9.08%, COc1cc(-c2nnc(SCC(=O)Oc3ccccc3)o2)cc(OC)c1OC -0.531%, Cc1cc(C)c2c(=O)cc(CSc3nnc(-c4ccccc4)n3C)[nH]c2c1 -4.35%, Cc1ccc(Nc2nc3ccccc3c3nnc(C)n23)cc1Cl -4.78%, CC(C)C(=O)N1c2nc(C(C)C)nn2C2(CCCCC2)[C@@H]2CCCC[C@@H]21 7.66%, COc1ccc(Cl)cc1NC(=O)c1ncn(-c2ccccc2)n1 -1.49%, CCOc1ccc(CCNC(=O)c2ccc(CS(=O)(=O)c3ccccc3C)o2)cc1OCC 4.61%, COC(=O)c1ccc(Cn2c(SCC(=O)NCc3ccccc3)nc3ccccc32)cc1 -2.66%, CSCCC(NS(=O)(=O)c1cccs1)C(=O)Nc1ccc(C)c(Cl)c1 (stereo unspecified) 0.175%, CCOC(=O)c1cnc2ccc(C(=O)OC)cc2c1Nc1ccc(N2CCOCC2)cc1 1.31%, COc1cc(CN(C(=O)c2ccc(OC(C)C)cc2)C2CCS(=O)(=O)C2)cc(OC)c1OC (stereo unspecified) -14.3%, CCc1ccccc1NC(=O)c1sc2nc3n(c(=O)c2c1C)CCC3 2.69%, Cc1ccc(C)c(Cn2c(=O)n(Cc3ccco3)c(=O)c3oc4ccccc4c32)c1 -1.53%, CCc1ccc(NC(=O)Cn2c(=O)n(-c3ccccc3)c(=O)c3ccc(C(=O)NCc4ccc5c(c4)OCO5)cc32)cc1 -2.39%, CC(=O)c1cccc(NC(=O)CN2C(=O)c3cccnc3Sc3ccccc32)c1 -0.355%, CN(C)c1cc2c(cc1NC(=O)c1ccc(F)cc1)n(C)c(=O)n2C -3.35%, COc1cccc(Cn2c(C)c(CNCc3ccccc3Cl)c(C(=O)O)c2C)c1 9.03%, O=C(NCCCc1nc2ccccc2n1Cc1ccccc1)C1CCCCC1 6.27%, Cc1ccccc1OCc1ccc(-c2nc(C#N)c(N3CCN(c4ccccc4)CC3)o2)o1 -8.68%, CNC(=O)C1CCN(Cc2cc3ccccc3n2Cc2cccc(C)c2)CC1 0.646%, Cc1cccc(-c2nnn3c2nc(NCc2ccccc2)c2ccccc23)c1 -3.03%, CCc1ccc(-c2cc(C)no2)cc1S(=O)(=O)Nc1ccc(C)cn1 -9.72%, Cc1ccc(-c2cn3c(n2)sc2cc(C(=O)NCc4cccs4)ccc23)c(C)c1 -5.89%, CCN(CC)CCCNC(=O)CSc1nc2nc(C)c(Cc3c(F)cccc3Cl)c(C)n2n1 -8.4%, Cc1ccc(N(Cc2cc3ccccc3[nH]c2=O)C(=O)c2cccc(Cl)c2)cc1 0.398%, CCc1ccc(-n2nc(CO)c(C(=O)NCC(c3ccccc3)c3ccccc3)n2)cc1 -5.72%, Cc1ccc(CSc2nnc(-n3c(=O)c(C#N)cc4c(=O)n5cc(C)ccc5nc43)s2)cc1 0.319%, COc1ccc(-c2noc(CSc3nc(C)cc(=O)[nH]3)n2)cc1OC -14.8%, CC1=C(C(N)=O)C(c2cccc(C)c2)n2nc(-c3cccc(C)c3)nc2N1 (stereo unspecified) -1.97%, Cc1ccc(C)c(NC(=O)Cn2c(=O)n(Cc3ccc4c(c3)OCO4)c(=O)c3oc4ccccc4c32)c1 2.42%, CCCc1nc2c(C)cc(-c3nc4ccccc4n3C)cc2n1Cc1ccc(-c2ccccc2C(=O)O)cc1 4.33%, CC(C)c1ccc2occ(CC(=O)Nc3ccccc3Cl)c2c1 -14.1%, CC(C)NC(=O)C(c1ccccc1)N1Cc2ccccc2C1=O (stereo unspecified) 15.3%, COc1ccc(Cn2ccc3nc(C)c(C(=O)N4CCN(c5ccccc5OC)CC4)cc3c2=O)cc1 -2.22%

outcome, inactive:
CCOc1ccc(-c2nnc(SCC(=O)NCCc3ccccc3)nc2-c2ccc(OCC)cc2)cc1, CCOc1ccccc1NC(=O)c1ccc2c(Cl)c3c(nc2c1)CCCC3, COc1ccc(C)cc1NC(=O)CCNS(=O)(=O)c1cccc2nonc12, COc1ccc(OCc2nc3c4c(-c5ccc(OC)cc5)c(-c5ccc(OC)cc5)oc4ncn3n2)cc1, O=C(CSc1ncc2c(n1)-c1cc(Cl)ccc1N(Cc1ccccc1F)S2(=O)=O)Nc1cccc(C(F)(F)F)c1, CC(=O)c1cccc(NC(=O)c2c(C)nn(-c3ccc(F)cc3)c2-n2cccc2)c1, Cc1cc2ccccc2n2c(SCC(=O)Nc3cccc(C(F)(F)F)c3)nnc12, Cc1cccc(S(=O)Cc2ccc(C(=O)NC3CCCCCC3)o2)c1 (stereo unspecified), O=S(=O)(c1ccc(-c2cnc(C3CC3)o2)cc1)N1CCN(c2cccc(Cl)c2)CC1, Cc1c(-c2ccccc2)n(-c2ccccc2O)c2nc3c(c(=O)n(C)c(=O)n3C)n12, Cc1ccc2c(c1)c(=O)c(S(=O)(=O)c1ccc(C)c(C)c1)cn2CC(=O)Nc1ccccc1, O=C(c1ccc2c(c1)N(Cc1ccccc1)C(=O)c1ccccc1S2=O)N1CCC(Cc2ccccc2)CC1 (stereo unspecified), COC(=O)c1cc(S(=O)(=O)N2CCN(c3ccc(F)cc3)CC2)cn1C, COc1ccccc1CNC(=O)c1cnc2sc(N3CCOCC3)nn2c1=O, CC1CCN(Cc2c(O)ccc3c(=O)c(-c4ccc(Cl)cc4)c(C(F)(F)F)oc23)CC1, COc1ccc(OC)c(NC(=O)Cc2c(C)n(C(=O)c3ccc(Cl)cc3)c3ccc(OC)cc23)c1, CC(=O)c1ccc(NC(=O)CSc2nnc(NC(=O)Nc3ccccc3)s2)cc1, CCOc1ccc(CNC(=O)c2ccc(NC(=O)N3CCSc4ncccc43)cc2)cc1OC, CC(C)CCNC(=O)C1CCN(S(=O)(=O)c2cccc3nsnc23)CC1
